PMC10219652, “Insights into cargo sorting by SNX32 and its role in neurite outgrowth” (eLife, 2023)
Changes are numbered by the printed parent chain. These are yes or no findings as the source states them, for the method shown. Binding seen in cells or lysates may run through a third protein. Some results given as binding are weak or reduced against the parent protein; the word gives no strength. Sequences can lack the tags named with a protein. Each block holds one molecule with its values, some of them ahead of it.

Sequences of proteins named here, by UniProt entry; tags and fusion partners are left off. A change or cut given only in a name is not applied to a line headed by its entry. Residues count along the entry.
UniProt Q13596: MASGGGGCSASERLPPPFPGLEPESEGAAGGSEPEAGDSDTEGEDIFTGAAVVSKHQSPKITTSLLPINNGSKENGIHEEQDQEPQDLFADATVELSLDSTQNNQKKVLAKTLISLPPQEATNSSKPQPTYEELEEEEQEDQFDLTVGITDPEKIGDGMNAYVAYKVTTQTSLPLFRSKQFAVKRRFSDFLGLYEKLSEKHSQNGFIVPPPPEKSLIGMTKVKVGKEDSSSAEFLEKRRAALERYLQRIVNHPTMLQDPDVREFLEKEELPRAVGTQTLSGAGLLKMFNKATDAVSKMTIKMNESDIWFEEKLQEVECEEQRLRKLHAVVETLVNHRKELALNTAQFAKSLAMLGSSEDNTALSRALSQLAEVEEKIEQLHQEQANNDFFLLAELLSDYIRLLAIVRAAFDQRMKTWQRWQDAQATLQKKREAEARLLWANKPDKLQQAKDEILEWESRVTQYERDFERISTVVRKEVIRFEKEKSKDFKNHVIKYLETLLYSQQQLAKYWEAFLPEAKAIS
UniProt P11717, residues 41-2491: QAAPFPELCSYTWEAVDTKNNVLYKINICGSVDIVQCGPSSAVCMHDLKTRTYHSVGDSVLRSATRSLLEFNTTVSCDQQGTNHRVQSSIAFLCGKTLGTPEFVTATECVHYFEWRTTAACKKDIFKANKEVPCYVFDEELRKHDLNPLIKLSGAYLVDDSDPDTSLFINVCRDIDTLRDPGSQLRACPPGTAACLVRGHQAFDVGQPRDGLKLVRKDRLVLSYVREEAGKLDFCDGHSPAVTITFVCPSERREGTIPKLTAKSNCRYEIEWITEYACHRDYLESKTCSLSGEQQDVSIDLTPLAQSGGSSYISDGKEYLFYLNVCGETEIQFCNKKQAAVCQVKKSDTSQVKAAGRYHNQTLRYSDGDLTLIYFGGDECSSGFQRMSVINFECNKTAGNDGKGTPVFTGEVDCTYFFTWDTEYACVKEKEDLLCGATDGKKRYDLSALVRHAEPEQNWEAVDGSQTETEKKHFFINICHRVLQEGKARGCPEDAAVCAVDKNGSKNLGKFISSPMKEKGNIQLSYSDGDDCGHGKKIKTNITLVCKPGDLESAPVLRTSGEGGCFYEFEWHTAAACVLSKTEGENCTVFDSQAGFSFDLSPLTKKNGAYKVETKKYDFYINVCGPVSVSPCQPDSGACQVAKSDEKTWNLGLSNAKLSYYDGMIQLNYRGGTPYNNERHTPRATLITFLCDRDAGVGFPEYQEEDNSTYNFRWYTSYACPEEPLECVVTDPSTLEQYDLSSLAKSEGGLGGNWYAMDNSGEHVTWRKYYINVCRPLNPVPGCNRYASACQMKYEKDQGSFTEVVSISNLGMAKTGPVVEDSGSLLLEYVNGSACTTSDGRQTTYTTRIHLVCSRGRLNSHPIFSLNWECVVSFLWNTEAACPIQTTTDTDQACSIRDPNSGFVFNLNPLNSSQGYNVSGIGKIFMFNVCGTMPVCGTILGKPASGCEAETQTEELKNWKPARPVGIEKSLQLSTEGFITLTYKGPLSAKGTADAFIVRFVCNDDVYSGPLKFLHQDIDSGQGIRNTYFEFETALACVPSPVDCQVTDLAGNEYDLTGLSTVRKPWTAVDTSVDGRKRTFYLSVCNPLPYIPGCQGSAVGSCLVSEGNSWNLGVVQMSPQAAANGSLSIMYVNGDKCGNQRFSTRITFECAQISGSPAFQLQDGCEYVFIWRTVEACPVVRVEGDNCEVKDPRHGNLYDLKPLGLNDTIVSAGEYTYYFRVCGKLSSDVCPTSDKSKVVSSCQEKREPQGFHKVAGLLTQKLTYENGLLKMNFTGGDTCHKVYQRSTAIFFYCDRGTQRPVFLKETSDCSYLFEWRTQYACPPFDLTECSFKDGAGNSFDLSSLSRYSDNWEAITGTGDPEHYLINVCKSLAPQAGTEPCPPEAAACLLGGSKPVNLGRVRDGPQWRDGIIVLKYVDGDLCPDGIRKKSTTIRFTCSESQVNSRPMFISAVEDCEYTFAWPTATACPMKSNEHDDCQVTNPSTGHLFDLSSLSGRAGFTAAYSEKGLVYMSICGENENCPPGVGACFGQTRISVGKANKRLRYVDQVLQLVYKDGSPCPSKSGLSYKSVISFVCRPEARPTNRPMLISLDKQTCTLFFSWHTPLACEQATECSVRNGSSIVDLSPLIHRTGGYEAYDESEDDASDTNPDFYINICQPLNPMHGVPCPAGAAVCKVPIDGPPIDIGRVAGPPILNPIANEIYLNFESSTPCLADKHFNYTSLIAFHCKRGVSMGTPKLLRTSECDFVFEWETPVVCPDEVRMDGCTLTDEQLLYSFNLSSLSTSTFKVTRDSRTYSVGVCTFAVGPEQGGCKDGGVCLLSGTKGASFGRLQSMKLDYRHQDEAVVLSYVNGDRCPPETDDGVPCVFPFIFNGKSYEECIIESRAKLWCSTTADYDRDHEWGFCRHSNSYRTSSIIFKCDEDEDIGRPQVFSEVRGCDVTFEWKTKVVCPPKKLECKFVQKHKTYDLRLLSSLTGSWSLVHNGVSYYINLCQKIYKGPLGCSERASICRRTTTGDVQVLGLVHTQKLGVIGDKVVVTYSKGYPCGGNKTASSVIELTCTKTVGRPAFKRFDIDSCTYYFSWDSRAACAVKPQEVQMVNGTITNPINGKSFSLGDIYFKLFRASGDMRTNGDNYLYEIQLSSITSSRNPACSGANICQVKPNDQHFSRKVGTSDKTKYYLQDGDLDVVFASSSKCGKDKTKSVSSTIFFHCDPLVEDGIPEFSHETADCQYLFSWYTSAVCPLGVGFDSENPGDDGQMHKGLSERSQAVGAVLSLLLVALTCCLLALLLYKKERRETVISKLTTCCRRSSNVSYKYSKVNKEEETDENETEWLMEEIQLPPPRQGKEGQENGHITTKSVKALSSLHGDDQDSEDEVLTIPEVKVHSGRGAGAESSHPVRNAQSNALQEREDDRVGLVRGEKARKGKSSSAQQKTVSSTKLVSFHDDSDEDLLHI

What was measured:
His-SNX32ΔC = molecular target: T1, His-SNX32ΔC (UniProt Q86XE0); test: pull-down; 20 µg of His SNX32ΔC bound to Ni-NTA beads, incubated with membrane-enriched HeLa cell lysate for 2 hr at 4°C; SDS-PAGE and immunoblot; only the target purified
T1 sequence: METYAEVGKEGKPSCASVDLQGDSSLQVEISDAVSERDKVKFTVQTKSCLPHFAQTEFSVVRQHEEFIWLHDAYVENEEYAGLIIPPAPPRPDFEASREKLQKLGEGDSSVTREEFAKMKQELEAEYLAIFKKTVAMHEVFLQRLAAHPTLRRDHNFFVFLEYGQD

GFP-SNX32 F131D = molecular target: T2, GFP-SNX32 F131D (UniProt Q86XE0); test: co-IP; GBP-IP of GFP-tagged SNX proteins from lysates of transfected cells (HeLa by the text; HEK293T by the legends of Figure 6A, C and I; the legend of Figure 6I also says GFP trap); endogenous TfR, CIMPR, SNX1 or BSG detected by immunoblot; values are the ratio of prey to GFP band intensity
T2 sequence: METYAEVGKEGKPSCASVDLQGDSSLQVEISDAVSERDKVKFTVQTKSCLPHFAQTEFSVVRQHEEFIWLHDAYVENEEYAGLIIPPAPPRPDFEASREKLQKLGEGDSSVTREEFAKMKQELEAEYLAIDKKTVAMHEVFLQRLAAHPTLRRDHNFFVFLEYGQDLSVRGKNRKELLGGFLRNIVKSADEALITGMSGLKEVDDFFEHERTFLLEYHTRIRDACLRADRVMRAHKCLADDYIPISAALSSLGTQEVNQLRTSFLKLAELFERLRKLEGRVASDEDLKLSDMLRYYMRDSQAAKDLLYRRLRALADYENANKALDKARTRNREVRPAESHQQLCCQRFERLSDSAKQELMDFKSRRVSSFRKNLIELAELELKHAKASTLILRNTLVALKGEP

GFP-SNX32 = molecular target: T3, GFP-SNX32 (UniProt Q86XE0); test: as above
T3 sequence: T2 sequence with D131F

GFP-SNX1 = GFP-SNX1 (UniProt Q13596); test: co-IP; GFP nanobody-based immunoprecipitation (GBP-IP): GST-GBP on glutathione sepharose beads incubated 2 hr at 4°C with extracts of HEK293T cells overexpressing GFP- and HA-tagged SNX proteins; washed with 1x PBS; immunoblot with anti-HA and anti-GFP; values are the ratio of HA to GFP band intensity
GFP-SNX4 = molecular target: T4, GFP-SNX4 (UniProt O95219); test: as above
T4 sequence: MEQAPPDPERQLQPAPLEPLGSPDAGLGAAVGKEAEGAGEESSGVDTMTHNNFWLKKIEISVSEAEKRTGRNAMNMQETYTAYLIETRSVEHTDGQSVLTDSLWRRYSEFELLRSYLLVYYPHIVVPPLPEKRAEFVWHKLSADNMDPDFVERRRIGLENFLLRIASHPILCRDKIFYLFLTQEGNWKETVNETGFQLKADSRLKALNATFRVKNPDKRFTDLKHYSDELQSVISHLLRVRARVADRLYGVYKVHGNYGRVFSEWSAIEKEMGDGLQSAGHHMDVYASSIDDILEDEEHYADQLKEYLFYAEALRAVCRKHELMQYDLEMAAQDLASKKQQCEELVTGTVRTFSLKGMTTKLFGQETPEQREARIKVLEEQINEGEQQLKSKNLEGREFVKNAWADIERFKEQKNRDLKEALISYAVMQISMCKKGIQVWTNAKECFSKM

GFP-SNX4, O95219 = molecular target: T5, GFP-SNX4, O95219; test: co-IP; GBP-IP as above with lysates of HeLa cells transiently transfected with wild-type or mutant GFP-SNX4 and HA-SNX32 (legend of Figure 1H); values are the ratio of HA to GFP band intensity; details: remark: other sources report otherwise
T5 chain: T4 sequence

B1: HA-SNX32ΔN (domain or fragment, UniProt Q86XE0-1 167-403)
chain: LSVRGKNRKELLGGFLRNIVKSADEALITGMSGLKEVDDFFEHERTFLLEYHTRIRDACLRADRVMRAHKCLADDYIPISAALSSLGTQEVNQLRTSFLKLAELFERLRKLEGRVASDEDLKLSDMLRYYMRDSQAAKDLLYRRLRALADYENANKALDKARTRNREVRPAESHQQLCCQRFERLSDSAKQELMDFKSRRVSSFRKNLIELAELELKHAKASTLILRNTLVALKGEP
binding (GFP-SNX1): binds | binding (GFP-SNX4): binds

B2: HA-SNX32 full-length (FL) (natural protein, UniProt Q86XE0-1 1-403, looked up)
chain: T2 sequence with D131F
notes: Sorting nexin 32 (SNX32, SNX6b); pcDNA3 HA N(I)-SNX32 FL subcloned from pEGFP C1-SNX32FL; also called HA-SNX32FL; HA-SNX32 WT; source: HEK293T or HeLa, transiently transfected, in lysate
binding (GFP-SNX4, O95219): binds

Next, values leading:

binding (His-SNX32ΔC): binds | binding (GFP-SNX32 F131D): no binding
Molecule: Cation-Independent Mannose-6-Phosphate Receptor (CIMPR) (from UniProt P11717 41-2491)

binding (GFP-SNX32): binds | binding (GFP-SNX32 F131D): binds
Molecule: endogenous SNX1 (from UniProt Q13596-1 1-522)

binding (GFP-SNX1): no binding | binding (GFP-SNX4): no binding
B3: HA-SNX32ΔC (domain or fragment, UniProt Q86XE0-1 1-166)
chain: T1 sequence
